# The supplement of paper PMC9446081
# Hit rate of the full screen: of about 39,000 compounds, about 220 (0.56%) showed activity. This is one part of the list.
# Test system: Escherichia coli K-12 BW25113
# Assay: relative growth (OD600 normalised to plate interquartile mean) (fraction); higher = less growth inhibition, active = 0.2 or less
# Settings: 50 µM; LB; incubation time: overnight (16-24 h)
# 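Further: static incubation at 37 °C against the wild-type strain, values averaged over two biological replicates.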
row,SMILES,relative growth
1,C[C@@H]1CN([C@H](C)CO)C(=O)c2cccc(NC(=O)c3cnccn3)c2O[C@H]1CN(C)CC1CCCCC1,inactive: 1.02
2,C[C@@H]1CN([C@H](C)CO)C(=O)Cc2cc(NC(=O)Nc3cccc4ccccc34)ccc2O[C@@H]1CN(C)S(=O)(=O)c1ccc(Cl)cc1,inactive: 1.03
3,C[C@@H]1CCCCO[C@H](CN(C)C(=O)Nc2ccc3c(c2)OCO3)[C@H](C)CN([C@@H](C)CO)C(=O)c2cc(NC(=O)Nc3ccc(F)cc3)ccc2O1,inactive: 0.991
4,C[C@H](CO)N1C[C@H](C)[C@H](CN(C)Cc2ccc3c(c2)OCO3)OCCCC[C@H](C)Oc2ccc(NC(=O)Nc3ccc4c(c3)OCO4)cc2C1=O,inactive: 0.982
5,Cc1ccc(S(=O)(=O)N(C)C[C@@H]2OCCCC[C@@H](C)Oc3ccc(NC(=O)NC4CCCCC4)cc3C(=O)N([C@H](C)CO)C[C@H]2C)cc1,inactive: 0.977
6,O=C(C[C@@H]1C[C@H]2c3cc(NC(=O)Cc4ccncc4)ccc3O[C@H]2[C@@H](CO)O1)NCc1cccc(F)c1,inactive: 0.994
7,C[C@H](CO)N1C[C@H](C)[C@H](CN(C)Cc2ccncc2)Oc2ccc(NS(=O)(=O)c3cn(C)cn3)cc2C1=O,inactive: 1.01
8,CC(C)OC(=O)C(C)(C)Oc1ccc(C(=O)c2ccc(Cl)cc2)cc1,inactive: 0.999
9,COc1cccc(S(=O)(=O)Nc2ccc3c(c2)[C@@H]2C[C@H](CC(=O)N4CCCCC4)O[C@H](CO)[C@@H]2O3)c1,inactive: 0.998
10,Cc1ccccc1S(=O)(=O)N1C[C@H](O)COC[C@H]2O[C@@H](CC(=O)N3CCOCC3)CC[C@@H]21,inactive: 0.995
11,COc1cc([C@@H]2c3cc4c(cc3[C@@H](O[C@@H]3O[C@@H]5CO[C@@H](C)O[C@H]5[C@H](O)[C@H]3O)[C@H]3COC(=O)[C@H]23)OCO4)cc(OC)c1O,inactive: 0.978
12,Cc1ccc(S(=O)(=O)N(C)C[C@@H]2Oc3c(NC(=O)c4cc(C)nn4C)cccc3C(=O)N([C@H](C)CO)C[C@@H]2C)cc1,inactive: 1.04
13,COc1cc2c3cc1Oc1cc(ccc1O)O[C@H]1c4c(cc(OC)c(O)c4Oc4ccc(cc4)C[C@@H]3N(C)CC2)CCN1C,inactive: 0.993
14,CC(C)(C)[S@@](=O)N1Cc2cc(C(=O)NCC(F)(F)F)nc(-c3cccc(-c4cccc(F)c4)c3)c2[C@H]1CCO,inactive: 1.04
15,C[C@@H]1CCCCO[C@H](CN(C)S(=O)(=O)c2cn(C)cn2)[C@H](C)CN([C@@H](C)CO)C(=O)c2cc(NC(=O)Nc3cccc4ccccc34)ccc2O1,inactive: 1.02
16,O=C(C[C@@H]1CC[C@H]2[C@@H](COC[C@@H](O)CN2C(=O)Nc2cccc(Cl)c2)O1)NCCCN1CCOCC1,inactive: 0.947
17,C[C@H](CO)N1C[C@H](C)[C@H](CN(C)S(=O)(=O)c2cccs2)Oc2ccc(NS(=O)(=O)c3ccccc3)cc2C1=O,inactive: 1.01
18,C[C@@H]1CN([C@H](C)CO)C(=O)c2cccc(NS(C)(=O)=O)c2O[C@H]1CN(C)C(=O)NC1CCCCC1,inactive: 1.01
19,CS(=O)(=O)N[C@H]1CCN(c2ccccn2)C1,inactive: 1.02

row,SMILES,relative growth
1,COc1ccc(S(=O)(=O)N(C)C[C@H]2Oc3cc(C4=CCCC4)ccc3S(=O)(=O)N([C@H](C)CO)C[C@H]2C)cc1,inactive: 1.04
2,Nc1ccc(Oc2ccccc2)cc1,inactive: 0.861
3,CCC(=O)c1ccc(Cl)s1,inactive: 1.05
4,COc1ccc(NC(=O)Nc2ccc3c(c2)C(=O)N([C@H](C)CO)C[C@H](C)[C@H](CN(C)C(=O)Nc2ccc(C(F)(F)F)cc2)OCCCC[C@H](C)O3)cc1,inactive: 1
5,Cc1noc(C)c1S(=O)(=O)N(C)C[C@@H]1Oc2c(NS(=O)(=O)c3ccccc3)cccc2C(=O)N([C@H](C)CO)C[C@@H]1C,inactive: 0.978
6,C[C@H](CO)N1C[C@H](C)[C@@H](CN(C)Cc2ccccc2)Oc2ccc(NC(=O)Cn3cnnn3)cc2CC1=O,inactive: 1.01
7,Cc1ccc(S(=O)(=O)Nc2ccc3c(c2)C(=O)N([C@@H](C)CO)C[C@H](C)[C@@H](CN(C)Cc2ccc(C(F)(F)F)cc2)OCCCC[C@H](C)O3)cc1,inactive: 0.986
8,C[C@H]1CN([C@@H](C)CO)C(=O)c2cccc(NC(=O)Nc3ccc(C(F)(F)F)cc3)c2O[C@@H]1CN(C)C(=O)Nc1ccc(C(F)(F)F)cc1,inactive: 0.971
9,C[C@@H]1CN([C@@H](C)CO)C(=O)c2cc(NC(=O)Nc3ccccc3)ccc2O[C@@H](C)CCCCO[C@H]1CN(C)C(=O)Nc1cccc2ccccc12,inactive: 0.997
10,O=c1[nH]cc(Nc2ccccc2)c(=O)[nH]1,inactive: 1.01
11,C[C@@H]1CCCCO[C@H](CN(C)Cc2ccc(Cl)c(Cl)c2)[C@@H](C)CN([C@H](C)CO)C(=O)c2cc(NS(=O)(=O)c3ccc(Cl)cc3)ccc2O1,inactive: 1.03
12,CC(C)NC(=O)N(C)C[C@H]1Oc2ccc(NS(=O)(=O)c3ccccc3)cc2C(=O)N([C@H](C)CO)C[C@H]1C,inactive: 1.01
13,C[C@@H]1CN([C@@H](C)CO)S(=O)(=O)c2ccc(C#Cc3cccc(F)c3)cc2O[C@H]1CN(C)C(=O)CN1CCOCC1,inactive: 1.01
14,CO[C@@H]1CN(C)C(=O)c2ccc(NS(C)(=O)=O)cc2OC[C@@H](C)N(C(=O)CN(C)C)C[C@H]1C,inactive: 0.981
15,C[C@@H]1CN([C@@H](C)CO)S(=O)(=O)c2ccc(Br)cc2O[C@H]1CN(C)S(=O)(=O)c1cccc(F)c1,inactive: 0.992
16,C[C@@H]1CN([C@H](C)CO)C(=O)c2cc(C#C[C@@H](C)O)cnc2O[C@H]1CN(C)Cc1cncnc1,inactive: 1
17,COCC#Cc1ccc2c(c1)O[C@@H](CN(C)Cc1ccc(F)cc1)[C@H](C)CN([C@H](C)CO)S2(=O)=O,inactive: 1.04
18,C[C@]1(C(=O)NCC(F)(F)F)c2ccccc2C(=O)N(Cc2cc(F)cc(C(F)(F)F)c2)[C@H]1c1ccc(CO)cc1,inactive: 1.01
19,O=C1CCNC(=O)N1,inactive: 1
